Among the data in article PMC7396842 are binding values, retold here.

Chains of the proteins cited; added tags and fusions are not shown.
UniProt O95166: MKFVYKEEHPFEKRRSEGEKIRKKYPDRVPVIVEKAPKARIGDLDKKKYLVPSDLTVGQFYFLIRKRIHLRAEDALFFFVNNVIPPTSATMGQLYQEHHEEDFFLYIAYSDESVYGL
UniProt P60520: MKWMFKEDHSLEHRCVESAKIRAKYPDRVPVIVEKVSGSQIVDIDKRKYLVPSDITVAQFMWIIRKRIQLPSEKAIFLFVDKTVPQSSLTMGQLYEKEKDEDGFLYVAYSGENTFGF

In one assay the target is GST-GABARAP (human) (UniProt O95166). Put plainly: pull-down; GST fusion protein from E. coli on Glutathione Sepharose beads; 35S-labelled in vitro translated Myc-tagged protein, precleared, incubated 1 h at 4 °C in NETN buffer (50 mM Tris pH 8.0, 150 mM NaCl, 1 mM EDTA, 0.5% NP-40); five washes; autoradiography; only the target purified.
In another assay the target is GST-GABARAPL2 (human) (UniProt P60520). The description is as above.

No constants are given. Whether binding was seen depends on the method and setting. Binding seen in cells or lysates may run through a third protein. Some entries that bind do so weakly or less than the wild type. Tags and fused reporters may be left off the sequences shown.

B1: Myc-CALCOCO1 ∆LIR (Δ126–144) Δ651–691, in vitro translated (domain or fragment, UniProt Q9P1Z2)
chain: MEESPLSRAPSRGGVNFLNVARTYIPNTKVECHYTLPPGTMPSASDWIGIFKVEAACVRDYHTFVWSSVPESTTDGSPIHTSVQFQASYLPKPGAQLYQFRYVNRQGQVCGQSPPFQFREPRPMDKATVLQNQLDESQQERNDLMQLKLQLEGQVTELRSRVQELERALATARQEHTELMEQYKGISRSHGEITEERDILSRQQGDHVARILELEDDIQTISEKVLTKEVELDRLRDTVKALTREQEKLLGQLKEVQADKEQSEAELQVAQQENHHLNLDLKEAKSWQEEQSAQAQRLKDKVAQMKDTLGQAQQRVAELEPLKEQLRGAQELAASSQQKATLLGEELASAAAARDRTIAELHRSRLEVAEVNGRLAELGLHLKEEKCQWSKERAGLLQSVEAEKDKILKLSAEILRLEKAVQEERTQNQVFKTELAREKDSSLVQLSESKRELTELRSALRVLQKEKEQLQEEKQELLEYMRKLEARLEKVADEKWNEDATTEDEEAAVGLSCPAALTDSEDESPEDMRLPPYGLCERGDPGSSPAGPREASPLVVISQPAPISPHLSGPAEDSSSDSEAEDEKSVLMAAVQSGGEEANLLLPELGSAFYDMASGFTVGTLSETSTGGPAT
modifications: 35S-methionine label
Take B1: the binding result in the assay with GST-GABARAP (human) and with GST-GABARAPL2 (human) was “binds” throughout.

B2: Myc-CALCOCO1 ∆LIR (Δ126–144), in vitro translated (protein, UniProt Q9P1Z2)
chain: MEESPLSRAPSRGGVNFLNVARTYIPNTKVECHYTLPPGTMPSASDWIGIFKVEAACVRDYHTFVWSSVPESTTDGSPIHTSVQFQASYLPKPGAQLYQFRYVNRQGQVCGQSPPFQFREPRPMDKATVLQNQLDESQQERNDLMQLKLQLEGQVTELRSRVQELERALATARQEHTELMEQYKGISRSHGEITEERDILSRQQGDHVARILELEDDIQTISEKVLTKEVELDRLRDTVKALTREQEKLLGQLKEVQADKEQSEAELQVAQQENHHLNLDLKEAKSWQEEQSAQAQRLKDKVAQMKDTLGQAQQRVAELEPLKEQLRGAQELAASSQQKATLLGEELASAAAARDRTIAELHRSRLEVAEVNGRLAELGLHLKEEKCQWSKERAGLLQSVEAEKDKILKLSAEILRLEKAVQEERTQNQVFKTELAREKDSSLVQLSESKRELTELRSALRVLQKEKEQLQEEKQELLEYMRKLEARLEKVADEKWNEDATTEDEEAAVGLSCPAALTDSEDESPEDMRLPPYGLCERGDPGSSPAGPREASPLVVISQPAPISPHLSGPAEDSSSDSEAEDEKSVLMAAVQSGGEEANLLLPELGSAFYDMASGFTVGTLSETSTGGPATPTWKECPICKERFPAESDKDALEDHMDGHFFFSTQDPFTFE
modifications: 35S-methionine label
Regarding B2, the binding entry with GST-GABARAP (human) and with GST-GABARAPL2 (human) was “binds” throughout.

B3: Myc-CALCOCO1 ∆CT (∆514–691), in vitro translated (domain or fragment, UniProt Q9P1Z2 1-513)
chain: MEESPLSRAPSRGGVNFLNVARTYIPNTKVECHYTLPPGTMPSASDWIGIFKVEAACVRDYHTFVWSSVPESTTDGSPIHTSVQFQASYLPKPGAQLYQFRYVNRQGQVCGQSPPFQFREPRPMDELVTLEEADGGSDILLVVPKATVLQNQLDESQQERNDLMQLKLQLEGQVTELRSRVQELERALATARQEHTELMEQYKGISRSHGEITEERDILSRQQGDHVARILELEDDIQTISEKVLTKEVELDRLRDTVKALTREQEKLLGQLKEVQADKEQSEAELQVAQQENHHLNLDLKEAKSWQEEQSAQAQRLKDKVAQMKDTLGQAQQRVAELEPLKEQLRGAQELAASSQQKATLLGEELASAAAARDRTIAELHRSRLEVAEVNGRLAELGLHLKEEKCQWSKERAGLLQSVEAEKDKILKLSAEILRLEKAVQEERTQNQVFKTELAREKDSSLVQLSESKRELTELRSALRVLQKEKEQLQEEKQELLEYMRKLEARLEKVADE
modifications: 35S-methionine label
Take B3: the binding result with GST-GABARAPL2 (human) is given as “binds”.
